Screen size: about 220,000 compounds; about 5,700 (2.6%) were called active. The inconclusive results got no clear call from the source; some entries with a clear call stand among them for comparison. Calls come from the whole dose curve; as a rule, active = well fitted inhibition curve with a large enough effect; inconclusive = small, poorly fitted or top-dose-only effect; inactive = no such curve, though single readings can be large or run the other way. Potencies of inconclusive entries are doubtful fits and often do not repeat.
These compounds were tested against Lysine-specific demethylase 5B (Homo sapiens) (UniProt Q9UGL1) (assay: Primary screen for KDM5B Histone Demethylases FDH-coupled qHTS). Settings: FDH-coupled NADH fluorescence (FDH is formaldehyde dehydrogenase); series mostly up to 57.7 µM.
Method in brief: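 Coupled FDH/NAD⁺ fluorescence readout. KDM5BΔAP 200 nM final; compound titration, 10 min RT preincubation; substrate mix 12.5 µM H3K4me3, 25 µM 2-OG, 50 µM Fe(II), 100 µM ascorbate, 0.25 mM NAD⁺, 0.25 U/mL FDH; ΔRFU over 30 min.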
Note: nearly all actives have a fitted effect of over 70% in size.
Potency is the fitted concentration of half-maximal effect; tags give direction and shape of the fitted curve.

Chain of UniProt Q9UGL1 (Q9UGL1 whole entry, looked up): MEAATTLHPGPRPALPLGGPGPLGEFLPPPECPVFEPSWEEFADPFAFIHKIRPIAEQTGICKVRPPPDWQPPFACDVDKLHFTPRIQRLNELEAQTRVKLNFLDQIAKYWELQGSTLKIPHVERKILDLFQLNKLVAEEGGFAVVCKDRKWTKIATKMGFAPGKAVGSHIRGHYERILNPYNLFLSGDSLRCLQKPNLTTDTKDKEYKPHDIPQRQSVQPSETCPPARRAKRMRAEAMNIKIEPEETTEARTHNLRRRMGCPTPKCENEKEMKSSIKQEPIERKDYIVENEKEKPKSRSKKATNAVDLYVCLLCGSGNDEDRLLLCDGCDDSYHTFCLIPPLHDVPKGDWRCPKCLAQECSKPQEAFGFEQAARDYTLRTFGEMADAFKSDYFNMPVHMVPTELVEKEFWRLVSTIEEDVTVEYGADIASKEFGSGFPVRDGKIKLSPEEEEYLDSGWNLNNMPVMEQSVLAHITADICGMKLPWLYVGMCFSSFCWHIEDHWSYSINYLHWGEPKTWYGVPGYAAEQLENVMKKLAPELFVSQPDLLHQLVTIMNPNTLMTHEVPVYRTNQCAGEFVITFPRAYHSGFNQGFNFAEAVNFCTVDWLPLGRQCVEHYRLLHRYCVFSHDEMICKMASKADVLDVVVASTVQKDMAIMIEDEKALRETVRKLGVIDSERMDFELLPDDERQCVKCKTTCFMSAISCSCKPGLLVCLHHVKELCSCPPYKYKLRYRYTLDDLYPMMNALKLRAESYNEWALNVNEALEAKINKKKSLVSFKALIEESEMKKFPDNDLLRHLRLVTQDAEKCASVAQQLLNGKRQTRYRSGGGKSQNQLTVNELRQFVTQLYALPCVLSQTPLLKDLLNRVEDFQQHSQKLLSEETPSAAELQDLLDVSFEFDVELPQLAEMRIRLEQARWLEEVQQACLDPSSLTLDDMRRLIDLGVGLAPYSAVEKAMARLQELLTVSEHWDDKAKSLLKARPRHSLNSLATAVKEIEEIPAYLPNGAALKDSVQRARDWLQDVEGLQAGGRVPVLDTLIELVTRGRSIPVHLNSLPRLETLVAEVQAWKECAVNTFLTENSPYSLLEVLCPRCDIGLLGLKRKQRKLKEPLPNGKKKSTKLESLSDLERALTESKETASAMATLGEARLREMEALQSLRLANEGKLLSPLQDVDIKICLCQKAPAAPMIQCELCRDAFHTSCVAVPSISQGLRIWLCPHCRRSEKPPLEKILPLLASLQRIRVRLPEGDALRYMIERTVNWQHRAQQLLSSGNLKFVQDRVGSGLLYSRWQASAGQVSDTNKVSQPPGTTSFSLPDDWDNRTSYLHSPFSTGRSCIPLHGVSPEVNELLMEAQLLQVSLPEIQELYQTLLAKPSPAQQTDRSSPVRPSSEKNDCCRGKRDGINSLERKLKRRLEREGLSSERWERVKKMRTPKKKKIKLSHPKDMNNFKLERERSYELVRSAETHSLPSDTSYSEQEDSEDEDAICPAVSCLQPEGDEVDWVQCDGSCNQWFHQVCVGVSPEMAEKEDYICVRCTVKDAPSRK

| SMILES | Potency |
| --- | --- |
| COc1ccc(Cc2ncc3c(n2)CN(C(=O)C(CO)NC(C)=O)C3)cc1 (centres undefined) | inconclusive: 35.5 µM [inhibitor, partial curve, poor fit] |
| O=C(CCC[C@H]1NC[C@@H]2C[C@H]1CN(Cc1ccccc1)C2)N1CCN(C2CCCCC2)CC1 | inconclusive: 15.8 µM [inhibitor, partial curve, poor fit] |
| CCc1cccc(NC(=O)Cn2c(=O)c(-c3noc(C)n3)c3n(c2=O)CCCCC3)c1 | inactive |
| Cc1cc(C)c(CNC(=O)c2nc(-c3ccccc3)cc3c2ccn3C(C)C)c(=O)[nH]1 | inactive |
| CN(C)CCNC(=O)Cn1c(=O)c2cccn2c2ccc(F)cc21 | inconclusive: 35.5 µM [inhibitor, single point] |
| O=C(NCC1CC1)c1cccc(OC2CN(Cc3cccc(F)c3)C2)c1 | inactive |
| CC1(CCCCc2ccccc2)COc2ccc(C(=O)N3CC(O)C3)cc2N1 (centres undefined) | inconclusive: 25.1 µM [inhibitor, partial curve, poor fit] |
| O=C(Cc1cccs1)N1CCc2nn(CC3CC3)c(=O)n2CC1 | inconclusive: 11.2 µM [inhibitor, partial curve, poor fit] |
| O=C1NCN(Cc2ccc(Cl)cc2)C12CCN(Cc1ccccc1C(F)(F)F)CC2 | inactive |
| O=C(COC(=O)c1nn(-c2ccccc2)c(=O)c2ccccc12)Nc1ccccc1-c1ccccc1 | inconclusive: 39.8 µM [inhibitor, single point] |
| COc1cc(/C=C/C(=O)c2ccccc2OC)ccc1OC(F)F | inactive |
| COc1ccc(C(=O)N2c3ccccc3C(C)(c3ccc(Cl)cc3)CC2(C)C)cc1 (centres undefined) | inconclusive: 39.8 µM [inhibitor, single point] |
| CC(=O)N1Cc2ccccc2OC2(CCN(C(=O)c3cccc4[nH]ccc34)CC2)C1 | inactive |
| O=S1(=O)c2ccccc2N(Cc2cccc(C(F)(F)F)c2)c2ccccc21 | inconclusive: 35.5 µM [inhibitor, partial curve, poor fit] |
| CCOC(=O)c1ccccc1NC(=O)Cn1ccn2nc3c(c2c1=O)CCCCC3 | inconclusive: 31.6 µM [inhibitor, single point] |
| Cc1oc(-c2cccs2)nc1C(=O)NCC1CCN(C2CC2)C1 (centres undefined) | inconclusive: 35.5 µM [inhibitor, single point] |
| Cc1ccccc1Nc1c(-c2ccco2)nc2c(C)cccn12 | inconclusive: 31.6 µM [inhibitor, partial curve, poor fit] |
| OC(Cn1ccnc1-c1cc(F)ccc1-n1cccn1)c1ccccc1 (centres undefined) | inconclusive: 12.6 µM [inhibitor, partial curve] |
| COc1ccc(-c2cc(N3CCCC(NC(=O)c4ccccc4Cl)C3)n[nH]2)cc1 (centres undefined) | inconclusive: 25.1 µM [inhibitor, partial curve] |
| Cn1nc(C2CCNC2)c2c(C(=O)NCC(F)(F)F)cc(C3CC3)nc21 (centres undefined) | inconclusive: 56.2 µM [inhibitor, partial curve, poor fit] |
| CCO[C@H]1CN(C(=O)c2ccc(OC)c(N3CCOCC3)c2)C[C@@H]1O | inconclusive: 44.7 µM [inhibitor, single point] |
| CC(C)n1cc2cc(C(=O)N3CCSCC3)sc2c1 | inconclusive: 17.8 µM [inhibitor, partial curve, poor fit] |

| SMILES | Potency |
| --- | --- |
| CC(C)C(OC(=O)C1=Cc2ccccc2OC1)C(=O)NCC1CCCO1 (centres undefined) | inconclusive: 14.1 µM [inhibitor, partial curve, poor fit] |
| CN1C[C@@H](NC(=O)c2ccccn2)C[C@H]1c1nc(-c2ccc3ccccc3c2)no1 | inconclusive: 31.6 µM [inhibitor, single point] |
| CCc1cccc(NC(=O)c2ccc3c(c2)N(C)C2CCCCN2C3=O)c1 (centres undefined) | inconclusive: 25.1 µM [inhibitor, partial curve, poor fit] |
| O=C1CCC2(CCN(c3nc4ccccc4s3)CC2)CN1Cc1cccnc1 | inactive |
| Cc1ccc2[nH]c(=O)c(CN(Cc3cccnc3)Cc3nnnn3CC3CCCO3)cc2c1 (centres undefined) | inconclusive: 28.2 µM [inhibitor, partial curve, poor fit] |
| COCCn1c(=O)c2c(nc(-n3nc(C)cc3C)n2CC(C)C)n(C)c1=O | inactive |
| COc1ccc(C2(C(=O)N3C[C@@H](Oc4cccnc4)C[C@H]3C(=O)NC3CC3)CC2)cc1 | inactive |
| Cc1ccc(C(=O)C(CC(=O)c2ccccc2)S(=O)(=O)c2ccc(C)cc2)cc1 (centres undefined) | inconclusive: 7.94 µM [inhibitor, full curve, poor fit] |
| CCc1nc2c(c(-c3ccc(OC)cc3)n1)CN(C(=O)c1ccc3c(c1)OCO3)CC2 | inconclusive: 28.2 µM [inhibitor, partial curve] |
| c1ccc2c(NC3C4CC5CC(C4)CC3C5)nc(N3CCCC3)nc2c1 (centres undefined) | inactive |
| CCN1CCC2(CCC1=O)CN(Cc1ccc(C)c3ccccc13)CCN2C (centres undefined) | inconclusive: 5.01 µM [inhibitor, partial curve] |
| O=C([C@H]1O[C@H](CCN2CCOCC2)CC[C@@H]1O)N1CCN(c2ccc(F)cc2)CC1 | inconclusive: 28.2 µM [inhibitor, single point] |
| Fc1ccc(-c2csc(Nc3cccc4ccccc34)n2)cc1 | inconclusive: 35.5 µM [inhibitor, partial curve, poor fit] |
| CC(C)C[C@@H]1N[C@H](C(=O)N2CCN(C)CC2)Cc2c[nH]c3cccc1c23 | active: 31.6 µM |
| O=C(CCOc1ccc(Cl)cc1)N1CCC(c2nnc3n2CCC3)CC1 | inactive |
| CN(C)NC(=S)Nc1ccc([N+](=O)[O-])cc1 | inactive |
| CCOc1ccccc1CN1CCN(c2nccc(OC)n2)CC1CCO (centres undefined) | inconclusive: 20 µM [inhibitor, partial curve, poor fit] |
| Oc1c(C(c2ccc(Cl)cc2)N2CCC3(CC2)OCCO3)sc2nc(-c3ccco3)nn12 (centres undefined) | inconclusive: 28.2 µM [inhibitor, single point] |
| O=C(/C=C/Nc1cccc(C(F)(F)F)c1)c1ccc(Br)cc1 | inconclusive: 15.8 µM [inhibitor, partial curve, poor fit] |
| Cc1noc(C)c1-c1cc(-c2cccc(N3CCOCC3)c2)cn2cncc12 | active: 35.5 µM |
| CC(C)NC[C@H]1O[C@@H](CO)[C@@H](O)[C@H]1N1CCN(c2ccccn2)CC1 | active: 25.1 µM |
| COc1ccc(-c2cc(C(F)(F)F)nc(SCCC(=O)Nc3cc(C)ccc3O)n2)cc1 | inconclusive: 25.1 µM [inhibitor, partial curve, poor fit] |

| SMILES | Potency |
| --- | --- |
| Cc1ccc(NC(=O)Cn2c(=O)n(Cc3ccco3)c(=O)c3sc4ccccc4c32)cc1C | inconclusive: 12.6 µM [inhibitor, partial curve, poor fit] |
| O=C(O)C[C@@H]1CCN(C(=O)c2ccnc(Cl)c2)C[C@@H]1CCN1CCN(c2cccc(C(F)(F)F)c2)CC1 | inactive |
| CC(=O)Nc1ccc(CN2CCC3(CC2)CNC(=O)c2ccccc2O3)cc1 | inactive |
| COc1ccc(-c2cc(C(=O)OCC3CCCO3)c3ccccc3n2)cc1OC (centres undefined) | inconclusive: 28.2 µM [inhibitor, single point] |
| CC(CCc1ccccc1)NC(=O)c1ccc2c(c1)N(Cc1ccccc1)C(=O)CS2=O (centres undefined) | inactive |
| OC(C#CCN1CCC(c2ccccc2)C1)(c1ccccc1)C1CCCCC1 (centres undefined) | inactive |
| COc1cccc(/C=C/c2nc(C#N)c(NCCc3ccc(OC)c(OC)c3)o2)c1 | inconclusive: 17.8 µM [inhibitor, partial curve, poor fit] |
| O=C(O)c1cc(N=Cc2c(O)c3ccccc3oc2=O)ccc1O | inconclusive: 22.4 µM [inhibitor, partial curve, poor fit] |
| Cn1ccc2c(C(=O)NCCc3cnc[nH]3)nc(-c3cnn(Cc4ccccc4)c3)cc21 | active: 31.6 µM |
| CCc1ccc(C(=O)NC2CCN(c3cc(-c4ccc(F)cc4)[nH]n3)C2)cc1 (centres undefined) | inconclusive: 17.8 µM [inhibitor, partial curve, poor fit] |
| O=C(COc1cc2oc(=O)cc(-c3ccccc3)c2cc1Cl)NCc1cccs1 | inactive |
| O=C(Nc1ccc(Cl)nc1)c1ccc2cncn2c1 | inconclusive: 35.5 µM [inhibitor, partial curve, poor fit] |
| Cc1cccc(-c2ccc3c(c2)C(=O)N2CC[C@H](NC(=O)c4cccs4)C[C@H]2C(=O)N3)c1C | inconclusive: 28.2 µM [inhibitor, partial curve, poor fit] |
| CC(C)c1noc(-c2ccn3c(CNC(=O)c4ccc(F)cc4Cl)nnc3c2)n1 | active: 28.2 µM |
| CC1(COc2cccnc2)COc2ccc(C(=O)NCCOc3ccccc3)cc2N1 (centres undefined) | active: 31.6 µM |
| Cc1cccc(/C=C(/C#N)c2nc(-c3ccncc3)cs2)c1 | inactive |
| CN(C)c1ccc(CN2CCOC[C@H]2c2ncc(-c3ccc(F)cc3F)[nH]2)cc1 | inconclusive: 28.2 µM [inhibitor, partial curve, poor fit] |
| O=C(c1ccc2cc[nH]c2c1)N1CCC(N2CC(OCC3CC3)C23CCCCC3)CC1 (centres undefined) | inconclusive: 31.6 µM [inhibitor, partial curve, poor fit] |
| COc1ccc(-c2nc(CSc3nncn4c3cc3occc34)c(C)o2)cc1 | inconclusive: 17.8 µM [inhibitor, partial curve, poor fit] |
| Nc1cc(C(=O)OCc2cccc(F)c2F)ccc1Cl | inconclusive: 31.6 µM [inhibitor, partial curve, poor fit] |

— PubChem BioAssay AID1347165 (National Center for Advancing Translational Sciences (NCATS), 2019)
